# Measured values from ChEMBL document CHEMBL1157539, “Thousands of chemical starting points for antimalarial lead identification” (Nature, 2010).
# Over roughly 13,000 compounds, “IFI” has its median near 4; the highest 2% begin near 17. Some of the results follow.
# Assay: GSK_TCMDC: Inhibition Frequency Index (IFI). The number of non-kinase HTS assays where a compound showed > 50 % inhibition, expressed as a percentage of the number of such assays in which the compound was tested (-0 is zero)
# Format: functional
row,Structure (SMILES),IFI [%]
1,Cc1cccc2nc(-c3ccc(-c4ccc(NC(=O)C(C)CN(C)C)cc4)s3)[nH]c12 (centres undefined),5.41
2,FC(F)(F)Oc1ccc(Nc2cc(-c3ccncc3)nc(-c3cccnc3)n2)cc1,-0
3,CC(C)(CNC(=O)C1CCN(Cc2ccc(Cl)cc2)CC1)c1nc(-c2ccc(Cl)c(O)c2)c(-c2ccncc2)[nH]1,5.07
4,Cc1c(CC(=O)NCCC2CCN(CCCCCNC(=O)/C=C/c3ccc(Cl)c(Cl)c3)CC2)sc2ccc(Cl)cc12,9.03
5,Oc1ccc(Cl)cc1Nc1nc(C(F)(F)F)nc2ccccc12,5.88
6,CCn1ncc(Cl)c1CN(C)S(=O)(=O)c1ccc(Br)cc1,1.89
7,CN(C)CCCOc1cccc(NC(=O)Nc2ccc(-c3ccccc3)cc2)c1,3.6
8,COc1ccc(CN2CCC(CNCCc3c(Cl)cccc3Cl)CC2)cc1,5.84
9,COc1ccc2nccc([C@@H](O)CN3CCC(NC(=O)/C=C/c4cccc(-c5ccccc5)c4)CC3)c2c1,2.21
10,O=C(Nc1cccc(-c2ccc(CN3CCCC3)cc2)c1)c1cccc(Cl)c1,1.96
11,O=C(Nc1ccc2c(c1)CCN2C1CCN(Cc2cccc(C(F)(F)F)c2)C1)c1ccco1 (centres undefined),-0
12,COc1ccc(CNCc2ccc(-c3ccc(-c4nc5cccc(C)c5[nH]4)s3)cc2)cc1,12.5
13,CCCCc1cc(NCC)nc(Nc2ccc(F)cc2)n1,6.06
14,NC1=NC2(CCCCC2)N(Cc2ccc(Cl)c(Cl)c2)C(N)=N1,6.67
15,CCN(CC)CCCOc1ccc(Nc2nccc(-c3c(-c4cccc(NC(=O)c5c(F)cccc5F)c4)nn4ccccc34)n2)cc1F,8.59
16,CC(C)CNCc1cccc(-c2ccc(CNC3CCN(Cc4ccccc4)CC3)cc2)c1,4.2
17,Cc1cccc2nc(-c3ccc(-c4cccc(CNCCN5CCNCC5)c4)cc3)[nH]c12,6.93
18,CC(C)Nc1nc(NCCc2c[nH]cn2)nc(Nc2ccc(Oc3ccccc3)cc2)n1,1.46
19,CCOC(=O)c1ccc(OCCOc2ccccc2)cc1,-0
20,CCCc1ccc(Cc2cnc3nc(N)nc(N)c3c2C)cc1,2.42

row,Structure (SMILES),IFI [%]
1,CCc1c[nH]c2c(N3CCCS3(=O)=O)cc(C(=O)N[C@@H](Cc3ccccc3)[C@H](O)CNC(C)(C)CCCC(C)C)cc12,8.03
2,O=C(Nc1ccc(C(=O)OCC2CCCCC2)cc1)N[C@@H](Cc1ccc(O)cc1)C(=O)NC1CCN(Cc2ccc(O)cc2)C1 (some centres undefined),5.41
3,CC(=O)Nc1ccc(S(=O)(=O)Nc2ccc(Nc3nc(C)cc(N4CCCCC4)n3)cc2)cc1,2
4,c1ccc2cc(CNCCCN3CCN(CCCNCc4ccc5ccccc5c4)CC3)ccc2c1,11.7
5,COc1ccc(CNCc2ccccc2)cc1-c1cccc(S(=O)(=O)NCCN2CCCC2)c1,11.1
6,N#Cc1ccc(CNCCCCCCNCc2ccc(C#N)c3ccccc23)c2ccccc12,7.04
7,CCOc1ccc(-c2cc3nc(C4CCNCC4)c(C(=O)Nc4ccc(C)cc4Cl)cn3n2)cc1,9.68
8,Cc1ccc(S(=O)(=O)N(CCCNCc2cccc(O)c2)c2ccccc2)cc1,4.73
9,CC(Cc1ccc(NC(=O)COc2ccc(CC(C)NCCc3cccc(Cl)c3)cc2)cc1)NCCc1cccc(Cl)c1 (centres undefined),32.4
10,CCOc1ccc2c(=NN=Cc3cc(OC)c(OC)c(OC)c3)cc(C)[nH]c2c1,4.32
11,CCOc1ccc2ccccc2c1CNCCCCCCNCc1c(OCC)ccc2ccccc12,13
12,Nc1cccc(C=CC(=O)N=c2cc[nH]c3ccccc23)c1,2.29
13,Cc1cc(C)cc(OCC(O)CN(Cc2cc(Cl)cc(Cl)c2)C(=O)Nc2ccc([N+](=O)[O-])cc2)c1 (centres undefined),4.11
14,CS(=O)(=O)Cc1ccc(Nc2nccc(-c3c(-c4cccc(NC(=O)c5c(F)cccc5F)c4)nn4ccccc34)n2)cc1,7.14
15,Cc1ccc(C2=NNC3(S2)C(=O)Nc2ccc(C)cc23)cc1 (centres undefined),11.3
16,O=[N+]([O-])c1cc(/C=N/Nc2nc3ccccc3[nH]2)ccc1O,1.56
17,Oc1cc(Nc2ccnc3cc(-c4ccc(CN5CCCCC5)o4)ccc23)c(Cl)cc1F,11.5
18,COc1cc2nc(C)nc(Nc3cccc(Br)c3)c2cc1OC,-0
19,COc1ccc(-c2cncc(-c3ccc(OC)c(OC)c3)n2)cc1OC,2.99
20,CO/C(=C\C=C\c1cc2cc(Cl)c(Cl)cc2[nH]1)C(=O)NCCCCN1CCN(c2ccccc2OC)CC1,19.1

row,Structure (SMILES),IFI [%]
1,CC(=O)c1ccc(NC(=O)CSc2nc(-c3ccccc3Cl)ns2)cc1,4.76
2,Cc1ccc2ccccc2c1CCCON1C(=N)N=C(N)NC1(C)C,4.93
3,O=S(=O)(NCCN1CCCC1)c1cccc(-c2ccc(CNCc3ccccc3)cc2)c1,5.88
4,CSc1cccc(Nc2nc3ccc(S(=O)(=O)NCC(C)C)cc3n2C(C)C(C)C)c1 (centres undefined),2.96
5,Nc1nccc2ccc(-c3ccc4nccn4c3)cc12,5.49
6,CC(C)CCN1CCC(Oc2ccc(NC(=O)c3ccc4ncccc4c3)cc2Cl)C1 (centres undefined),7.69
7,Cc1c[nH]c(-c2cccc(C(=O)NC3CCC(CCN4CCc5ccc(C#N)cc5CC4)CC3)c2)n1 (centres undefined),5
8,CC1(C)NC(N)=NC(=N)N1OCCNCc1ccc(Cl)cc1,0.74
9,Cc1cc(N(C)C2CCN(CC3CCCCC3)C2)nc(Nc2ccc(Br)cc2)n1 (centres undefined),7.89
10,COc1cccc(C(=O)NC(C=Cc2ccccc2)c2cc(Cl)c3cccnc3c2O)c1 (centres undefined),4.67
11,CCN(CC)CCN(CCN(CC)CC)c1ccc2c(c1)Sc1c(Cl)ccc(Cl)c1S2,7.41
12,CC1CN(Cc2csc(Nc3ccccc3)n2)CC(C)O1 (centres undefined),3.77
13,Cc1cccc2nc(-c3ccc(-c4ccc(CNCCNC(=O)c5ccnn5C)cc4)cc3)[nH]c12,6.93
14,Cc1cccc2nc(-c3cccc(-c4ccc(NC(=O)NCc5ccccc5)cc4)c3)[nH]c12,2.02
15,COc1ccc2ncc(F)c(CCN3CCC[C@H](CNCc4ccc5c(n4)NC(=O)CS5)C3)c2n1,3.85
16,Cc1cc(N[C@@H](CC(C)C)C(=O)NCCOc2ccccc2)nc(NCCc2ccccc2)n1,10
17,FC(F)(F)c1ccc2[nH]ccc(=NN=Cc3ccccc3Cl)c2c1,-0
18,O=C(C1CCCCC1)N1CCOC(CCN2CCC(c3ccccc3)CC2)(c2ccc(Cl)c(Cl)c2)C1 (centres undefined),7.33
19,CC(C)CCn1c(Sc2ccc(C#N)c([N+](=O)[O-])c2)nnc1-c1cccc(Cl)c1,6.43
